# The list shows a part of the results. Repeats are few or missing, and single values can be far off.
# System: A375
# Test: cell count relative to DMSO control; melanoma cells; higher = more viable cells
# Conditions: library dose: low library concentration; 72 h
# 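Further: cell number obtained by counting DAPI-stained nuclei in high-throughput microscope images with image analysis software, screen run in 1,536-well plates.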
row,Structure (SMILES),cell count [%]
1,"CCCCCCCCCCCCCCCCCCOP(=O)([O-])OC1CC[N+](C)(C)CC1 [Perifosine] + N.N.[Cl][Pt][Cl] [cisplatin] (first compound 0.4 µM, partner dose 1.6 µM)",84.1
2,"Cc1ccc(Nc2nccc(N(C)c3ccc4c(C)n(C)nc4c3)n2)cc1S(N)(=O)=O [Pazopanib] + N.N.[Cl][Pt][Cl] [cisplatin] (first compound 0.4 µM, partner dose 1.6 µM)",100
3,"O=c1[nH]nc(Sc2ncc([N+](=O)[O-])s2)n1-c1ccc2c(c1)OCCO2 + N.N.[Cl][Pt][Cl] [cisplatin] (first compound 0.2 µM, partner dose 1.6 µM)",106
4,"C[C@]1(O)C[C@@H](c2nc(-c3ccc4ccc(-c5ccccc5)nc4c3)c3c(N)nccn32)C1 + C[As](C)SC[C@H](NC(=O)CC[C@H](N)C(=O)O)C(=O)NCC(=O)O [Darinaparsin] (first compound 0.4 µM, partner dose 0.4 µM)",53.9
5,"Cn1sc(=O)n(Cc2ccccc2)c1=O + C[As](C)SC[C@H](NC(=O)CC[C@H](N)C(=O)O)C(=O)NCC(=O)O [Darinaparsin] (first compound 0.4 µM, partner dose 0.4 µM)",108
6,"N#CC[C@H](C1CCCC1)n1cc(-c2ncnc3[nH]ccc23)cn1 [ruxolitinib] + C[As](C)SC[C@H](NC(=O)CC[C@H](N)C(=O)O)C(=O)NCC(=O)O [Darinaparsin] (first compound 1 µM, partner dose 0.4 µM)",81.4
7,"O=c1[nH]nc(Sc2ncc([N+](=O)[O-])s2)n1-c1ccc2c(c1)OCCO2 + Cn1cc(C2=C(c3cn(C4CCN(Cc5ccccn5)CC4)c4ccccc34)C(=O)NC2=O)c2ccccc21 [Enzastaurin] (first compound 0.2 µM, partner dose 0.8 µM)",122
8,"CCCCCCCCc1ccc(CCC(N)(CO)CO)cc1 [fingolimod] + N.N.[Cl][Pt][Cl] [cisplatin] (first compound 2 µM, partner dose 1.6 µM)",55.7
9,"CNC(=O)c1cc(Oc2ccc(NC(=O)Nc3ccc(Cl)c(C(F)(F)F)c3)cc2)ccn1 [sorafenib] + C[As](C)SC[C@H](NC(=O)CC[C@H](N)C(=O)O)C(=O)NCC(=O)O [Darinaparsin] (first compound 0.4 µM, partner dose 0.4 µM)",103
10,"O=C(Nc1cc(C(F)(F)F)cc(C(F)(F)F)c1)c1cc(Cl)ccc1O + Cn1cc(C2=C(c3cn(C4CCN(Cc5ccccn5)CC4)c4ccccc34)C(=O)NC2=O)c2ccccc21 [Enzastaurin] (first compound 0.016 µM, partner dose 0.8 µM)",112
11,"CC1(C)CCC(c2ccc(Cl)cc2)=C(CN2CCN(c3ccc(C(=O)NS(=O)(=O)c4ccc(N[C@H](CCN5CCOCC5)CSc5ccccc5)c(S(=O)(=O)C(F)(F)F)c4)cc3)CC2)C1 + C[As](C)SC[C@H](NC(=O)CC[C@H](N)C(=O)O)C(=O)NCC(=O)O [Darinaparsin] (first compound 0.4 µM, partner dose 0.4 µM)",73.6
12,"CCN(CC)CCNC(=O)c1c(C)[nH]c(/C=C2\C(=O)Nc3ccc(F)cc32)c1C [sunitinib] + C[As](C)SC[C@H](NC(=O)CC[C@H](N)C(=O)O)C(=O)NCC(=O)O [Darinaparsin] (first compound 0.4 µM, partner dose 0.4 µM)",98.5
13,"Cc1ccc(Nc2nccc(N(C)c3ccc4c(C)n(C)nc4c3)n2)cc1S(N)(=O)=O [Pazopanib] + C[C@]12O[C@H](C[C@]1(O)CO)n1c3ccccc3c3c4c(c5c6ccccc6n2c5c31)CNC4=O [Lestaurtinib] (first compound 0.4 µM, partner dose 0.004 µM)",92.9
14,"CC[C@]1(O)C[C@H]2CN(CCc3c([nH]c4ccccc34)[C@@](C(=O)OC)(c3cc4c(cc3OC)N(C=O)[C@H]3[C@@](O)(C(=O)OC)[C@H](OC(C)=O)[C@]5(CC)C=CCN6CC[C@]43[C@@H]65)C2)C1 [vincristine] + C[C@]12O[C@H](C[C@]1(O)CO)n1c3ccccc3c3c4c(c5c6ccccc6n2c5c31)CNC4=O [Lestaurtinib] (first compound 0.0001 µM, partner dose 0.004 µM)",70.1
15,"CC(=O)c1c(C)c2cnc(Nc3ccc(N4CCNCC4)cn3)nc2n(C2CCCC2)c1=O [palbociclib] + C[As](C)SC[C@H](NC(=O)CC[C@H](N)C(=O)O)C(=O)NCC(=O)O [Darinaparsin] (first compound 0.04 µM, partner dose 0.4 µM)",60
16,"CC[C@]1(O)C[C@H]2CN(CCc3c([nH]c4ccccc34)[C@@](C(=O)OC)(c3cc4c(cc3OC)N(C=O)[C@H]3[C@@](O)(C(=O)OC)[C@H](OC(C)=O)[C@]5(CC)C=CCN6CC[C@]43[C@@H]65)C2)C1 [vincristine] + Cn1cc(C2=C(c3cn(C4CCN(Cc5ccccn5)CC4)c4ccccc34)C(=O)NC2=O)c2ccccc21 [Enzastaurin] (first compound 0.0001 µM, partner dose 0.8 µM)",80.1
17,"CC[C@]1(O)C[C@H]2CN(CCc3c([nH]c4ccccc34)[C@@](C(=O)OC)(c3cc4c(cc3OC)N(C=O)[C@H]3[C@@](O)(C(=O)OC)[C@H](OC(C)=O)[C@]5(CC)C=CCN6CC[C@]43[C@@H]65)C2)C1 [vincristine] + C[As](C)SC[C@H](NC(=O)CC[C@H](N)C(=O)O)C(=O)NCC(=O)O [Darinaparsin] (first compound 0.0001 µM, partner dose 0.4 µM)",73.7
18,"Cn1sc(=O)n(Cc2ccccc2)c1=O + C[C@]12O[C@H](C[C@]1(O)CO)n1c3ccccc3c3c4c(c5c6ccccc6n2c5c31)CNC4=O [Lestaurtinib] (first compound 0.4 µM, partner dose 0.004 µM)",111
19,"N#CC[C@H](C1CCCC1)n1cc(-c2ncnc3[nH]ccc23)cn1 [ruxolitinib] + Cn1cc(C2=C(c3cn(C4CCN(Cc5ccccn5)CC4)c4ccccc34)C(=O)NC2=O)c2ccccc21 [Enzastaurin] (first compound 1 µM, partner dose 0.8 µM)",105
20,"Cc1cn(-c2cc(NC(=O)c3ccc(C)c(Nc4nccc(-c5cccnc5)n4)c3)cc(C(F)(F)F)c2)cn1 [nilotinib] + N.N.[Cl][Pt][Cl] [cisplatin] (first compound 0.2 µM, partner dose 1.6 µM)",90.1
21,"CCCS(=O)(=O)Nc1ccc(F)c(C(=O)c2c[nH]c3ncc(Cl)cc23)c1F + C[As](C)SC[C@H](NC(=O)CC[C@H](N)C(=O)O)C(=O)NCC(=O)O [Darinaparsin] (first compound 0.08 µM, partner dose 0.4 µM)",103
22,"N#CC[C@H](C1CCCC1)n1cc(-c2ncnc3[nH]ccc23)cn1 [ruxolitinib] + N.N.[Cl][Pt][Cl] [cisplatin] (first compound 1 µM, partner dose 1.6 µM)",102
23,"Nc1ncn([C@H]2C[C@H](O)[C@@H](CO)O2)c(=O)n1 [decitabine] + C[As](C)SC[C@H](NC(=O)CC[C@H](N)C(=O)O)C(=O)NCC(=O)O [Darinaparsin] (first compound 0.1 µM, partner dose 0.4 µM)",99.6
24,"Cn1sc(=O)n(Cc2ccccc2)c1=O + N.N.[Cl][Pt][Cl] [cisplatin] (first compound 0.4 µM, partner dose 1.6 µM)",95.4
25,"Cn1cnc2c(F)c(Nc3ccc(Br)cc3Cl)c(C(=O)NOCCO)cc21 [selumetinib] + C[C@]12O[C@H](C[C@]1(O)CO)n1c3ccccc3c3c4c(c5c6ccccc6n2c5c31)CNC4=O [Lestaurtinib] (first compound 0.015 µM, partner dose 0.004 µM)",81.7
26,"O=C(Nc1cc(C(F)(F)F)cc(C(F)(F)F)c1)c1cc(Cl)ccc1O + C[C@]12O[C@H](C[C@]1(O)CO)n1c3ccccc3c3c4c(c5c6ccccc6n2c5c31)CNC4=O [Lestaurtinib] (first compound 0.016 µM, partner dose 0.004 µM)",80.1
27,"O=C(O)[C@@H]1[O][Sb](=[O])([O][Sb]2(=[O])[O][C@H]([C@H](O)CO)[C@H](O)[C@H](C(=O)O)[O]2)[O][C@H]([C@H](O)CO)[C@@H]1O (stereo not given in full) [stibogluconate] + C[As](C)SC[C@H](NC(=O)CC[C@H](N)C(=O)O)C(=O)NCC(=O)O [Darinaparsin] (first compound 2 µM, partner dose 0.4 µM)",132
28,"Cc1cc(Nc2cc(N3CCN(C)CC3)nc(/C=C/c3ccccc3)n2)n[nH]1 + N.N.[Cl][Pt][Cl] [cisplatin] (first compound 0.04 µM, partner dose 1.6 µM)",98.8
29,"CN(c1ncccc1CNc1nc(Nc2ccc3c(c2)CC(=O)N3)ncc1C(F)(F)F)S(C)(=O)=O + C[As](C)SC[C@H](NC(=O)CC[C@H](N)C(=O)O)C(=O)NCC(=O)O [Darinaparsin] (first compound 0.08 µM, partner dose 0.4 µM)",94.5
30,"C[C@@H](N)c1ccc(C(=O)Nc2ccnc3[nH]ccc23)cc1 + N.N.[Cl][Pt][Cl] [cisplatin] (first compound 0.4 µM, partner dose 1.6 µM)",90.2

# Reference: the supplement of paper PMC4604168 (melanoma cell lines)
